The source of these data is article PMC4336329 (PLoS ONE, 2015).

SMILES strings stand for the structures. The whole screen tested about 310,000 compounds, of which about 14,000 (4.5%) showed an effect of 50% or more. The effect is printed as a negative number. The list shows a part of the results.
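Also: peak tail current of the secondary pulse compared with the same well before compound.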

human ether-à-go-go-related gene (hERG) potassium channel, sequence (Q12809 whole entry, looked up): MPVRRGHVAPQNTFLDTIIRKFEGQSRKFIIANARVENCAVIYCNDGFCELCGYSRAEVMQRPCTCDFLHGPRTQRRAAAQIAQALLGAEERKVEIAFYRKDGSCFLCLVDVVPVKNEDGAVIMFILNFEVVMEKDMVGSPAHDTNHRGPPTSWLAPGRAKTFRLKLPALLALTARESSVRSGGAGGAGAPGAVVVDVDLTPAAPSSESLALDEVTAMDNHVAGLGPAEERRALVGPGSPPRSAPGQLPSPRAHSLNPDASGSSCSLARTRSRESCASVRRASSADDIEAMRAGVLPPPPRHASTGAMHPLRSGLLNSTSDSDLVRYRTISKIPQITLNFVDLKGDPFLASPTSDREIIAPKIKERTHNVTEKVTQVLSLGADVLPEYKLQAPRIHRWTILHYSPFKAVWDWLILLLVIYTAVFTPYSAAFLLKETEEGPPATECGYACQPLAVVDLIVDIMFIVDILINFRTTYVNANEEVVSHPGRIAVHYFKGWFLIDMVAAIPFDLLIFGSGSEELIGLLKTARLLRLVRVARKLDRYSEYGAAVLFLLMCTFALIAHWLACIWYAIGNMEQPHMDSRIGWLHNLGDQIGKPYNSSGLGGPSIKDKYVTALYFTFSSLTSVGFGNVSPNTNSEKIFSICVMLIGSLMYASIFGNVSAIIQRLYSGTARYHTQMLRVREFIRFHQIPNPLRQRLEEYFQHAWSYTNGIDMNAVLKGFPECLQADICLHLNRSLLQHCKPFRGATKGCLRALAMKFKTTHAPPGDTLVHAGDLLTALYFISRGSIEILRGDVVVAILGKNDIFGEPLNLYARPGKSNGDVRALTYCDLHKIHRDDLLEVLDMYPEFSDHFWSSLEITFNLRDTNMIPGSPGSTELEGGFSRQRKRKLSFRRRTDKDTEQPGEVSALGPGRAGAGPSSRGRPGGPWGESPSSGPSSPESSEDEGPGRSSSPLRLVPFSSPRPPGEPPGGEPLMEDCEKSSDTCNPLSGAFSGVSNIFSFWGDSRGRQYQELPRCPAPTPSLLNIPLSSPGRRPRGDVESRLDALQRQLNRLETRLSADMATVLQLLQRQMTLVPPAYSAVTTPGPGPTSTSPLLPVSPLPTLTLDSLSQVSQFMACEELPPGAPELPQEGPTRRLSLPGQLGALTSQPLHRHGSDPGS

The test addresses human ether-à-go-go-related gene (hERG) potassium channel (human, UniProt Q12809). Nature of the test: primary screen, population patch clamp on CHO cells stably expressing hERG.
As for `COc1cc2c(cc1OC)C1=NC(=O)CN1C(SCc1ccc(C)cc1)=N2`, the “hERG current change (%, negative = inhibition) at 10uM” value is on record as 15.8%.
`COC(=O)CCCCNC(=O)Nc1ccccc1`: the “hERG current change (%, negative = inhibition) at 10uM” value amounted to 10.8%.
As for `CC(C)(C)NC(=S)NCCc1ccccc1`, the “hERG current change (%, negative = inhibition) at 10uM” value was 22.7%.
For `Cc1cc(C)n(CCCNC(=O)CN(C)S(=O)(=O)c2ccc(Cl)cc2)n1`, the “hERG current change (%, negative = inhibition) at 10uM” value is recorded as -17.2%.
For `CCOc1ccc(NS(=O)(=O)c2ccc(C)c(C(=O)NCCCn3ccnc3)c2)cc1` the value was 24.1%; for `COc1ccc(CNC(=S)N/N=C/c2ccc(OC)c(OC)c2)cc1`, 0.504%.
With `O=S(=O)(Nc1cccc2ccccc12)c1cccc2nonc12` the figure was 3.98%.
With `O=C(NC(=O)N1CCCC1)c1csnn1`, the “hERG current change (%, negative = inhibition) at 10uM” value was 14%.
With `Fc1cccc(/C=N/Nc2nncc3ccccc23)c1` the figure was -13.6%; with `Nc1nnc(SCC(=O)OCc2ccc(Cl)c(Cl)c2)s1`, 12.2%.
In the case of `Cc1ccc2nc3c(cc2c1)CN(Cc1ccco1)C(=NCC1CCCO1)S3` (centres unmarked), the “hERG current change (%, negative = inhibition) at 10uM” value stood at 0.231%.
With `C/C=C(/C)C(=O)Nc1cccc(C2=NOC3(C2)C[C@H](C(N)=O)N(C(=O)Cc2ccc([N+](=O)[O-])cc2)C3)c1` (some centres unmarked) the figure was -5.06%; with `COc1ccc(CCNC(=O)CCNS(=O)(=O)c2cccc3nsnc23)cc1OC`, 5.26%; with `COc1cc(C2N(c3ccccc3)CCN2c2ccccc2)ccc1OC(C)=O`, -1.36%.
Regarding `CCC(C)NC(=O)C1CCCN1S(=O)(=O)c1ccc(Cl)cc1` (centres unmarked), the “hERG current change (%, negative = inhibition) at 10uM” value was determined as 12.4%.
With `Cc1ccc(NC(=S)N(CCN(C)C)C(C)c2ccco2)cc1C` (centres unmarked) the figure was -44.3%.
As for `COCC(C)NC(=O)C(C)N1c2cccc3cccc(c23)S1(=O)=O` (centres unmarked), the “hERG current change (%, negative = inhibition) at 10uM” value is given as 20.3%.
In the case of `CC(=O)Nc1cccc(NC(=O)C(C)N2c3cccc4cccc(c34)S2(=O)=O)c1` (centres unmarked), the “hERG current change (%, negative = inhibition) at 10uM” value is given as -3.03%.
For the compound `COc1ccc(C[C@H]2NC[C@H](O)[C@H]2OC(C)=O)cc1`, the “hERG current change (%, negative = inhibition) at 10uM” value came out at 5.98%.
Turning to `C=CCN(c1ccc(OC)cc1)S(=O)(=O)c1ccc(Cl)c(C(=O)OCC(=O)NC2CC2)c1`, the “hERG current change (%, negative = inhibition) at 10uM” value is reported as -11.5%.
For `O=C(CSc1cn(CCNC(=O)c2cccs2)c2ccccc12)NC1CCCC1` the value was -36.5%; for `Cc1ccc(C)c(S(=O)(=O)NCCC(=O)N2CCCC(C(N)=O)C2)c1` (centres unmarked), -0.00222%.
For `Clc1ccc(Cn2nnc(-c3ccc(N4CCOCC4)cc3)n2)cc1` the value was 4.16%; for `NNc1nc(Nc2ccccc2)nc(Nc2ccccc2)n1`, 1.94%; for `CCCC(=O)NCCc1cc2c(C)ccc(C)c2[nH]c1=O`, -5.19%.
As for `CC(C)Oc1ccc(C(=O)OC(C)C(=O)Nc2nc(-c3cccc([N+](=O)[O-])c3)cs2)cc1` (centres unmarked), the “hERG current change (%, negative = inhibition) at 10uM” value stood at 6.27%.
As to `CCCCCCn1c(NCC)nc2c1c(=O)n(C)c(=O)n2C`, the “hERG current change (%, negative = inhibition) at 10uM” value stood at 2.03%.
For the compound `O=C1C(C=NCCN2CCOCC2)=C(O)c2ccccc21`, the “hERG current change (%, negative = inhibition) at 10uM” value is on record as 0.0703%.
For `O=C(COc1cc2oc(=O)c3c(c2cc1Cl)CCC3)NCCCn1ccnc1` the value was -34.9%; for `CCCc1ccc(C(=O)N2CCN(c3ccccc3OCC)CC2)cc1`, -56.3%.
For the compound `N/C(=N\OC(=O)C1CC1)c1ccc([N+](=O)[O-])s1`, the “hERG current change (%, negative = inhibition) at 10uM” value was 8.23%.
For `Cc1cc(NN)nc(NS(=O)(=O)c2ccc(Cl)cc2)n1`, the “hERG current change (%, negative = inhibition) at 10uM” value was 23.4%.
Consider `CC(C)C(NC(=O)c1ccc(C(C)(C)C)cc1)C(=O)OCC(=O)NC(=O)Cc1ccccc1` (centres unmarked), for which the “hERG current change (%, negative = inhibition) at 10uM” value is listed as 8.36%.
Regarding `Cc1cccc2cc(/C=N/NC(=O)CN3CCOCC3)c(Cl)nc12`, the “hERG current change (%, negative = inhibition) at 10uM” value was -1.73%.
Turning to `COc1ccc(S(=O)(=O)N2CCCOC2CNC(=O)C(=O)NCc2ccncc2)cc1` (centres unmarked), the “hERG current change (%, negative = inhibition) at 10uM” value is -0.238%.
Take `Cc1nc2sccn2c(=O)c1S(=O)(=O)NCC1CCN(Cc2ccccc2Cl)CC1`: the “hERG current change (%, negative = inhibition) at 10uM” value is -25.9%.
For `Cc1ccccc1-n1nnnc1SCc1ncc(-c2ccccc2)o1` the value was 0.503%; for `CCCC(C)NC(=O)COC(=O)c1cc(Br)c(Br)s1` (centres unmarked), 0.346%; for `COc1cc2c(cc1OC)CN(C(=O)c1sc(-c3cnccn3)nc1C)CC2`, 0.572%.
With `O=S1(=O)CCOC[C@H](CC2CCCCC2)N1Cc1ccccc1F` the figure was 10.1%; with `COC(=O)CCN1CCN(S(=O)(=O)c2cccc(Br)c2)CC1`, 8.58%; with `CCN(CC)CCNC(=O)c1cn(C)c2ccc(S(=O)(=O)N(C)C3CCCCC3)cc2c1=O`, -42.8%.
As for `Cc1cccc(NC(=O)CCC(=O)Nc2nnc(C(F)(F)F)s2)c1`, the “hERG current change (%, negative = inhibition) at 10uM” value was determined as 12.7%.
For `CCCCCn1c(=O)c(C(=O)Nc2nc(CC(=O)OCC)cs2)c(O)c2ccccc21`, the “hERG current change (%, negative = inhibition) at 10uM” value was determined as 32.6%.
